Binding data for 7 molecules are collected here from publication PMC8976005.

Amino acid sequences for entries named in this document (tags omitted).
UniProt P38606: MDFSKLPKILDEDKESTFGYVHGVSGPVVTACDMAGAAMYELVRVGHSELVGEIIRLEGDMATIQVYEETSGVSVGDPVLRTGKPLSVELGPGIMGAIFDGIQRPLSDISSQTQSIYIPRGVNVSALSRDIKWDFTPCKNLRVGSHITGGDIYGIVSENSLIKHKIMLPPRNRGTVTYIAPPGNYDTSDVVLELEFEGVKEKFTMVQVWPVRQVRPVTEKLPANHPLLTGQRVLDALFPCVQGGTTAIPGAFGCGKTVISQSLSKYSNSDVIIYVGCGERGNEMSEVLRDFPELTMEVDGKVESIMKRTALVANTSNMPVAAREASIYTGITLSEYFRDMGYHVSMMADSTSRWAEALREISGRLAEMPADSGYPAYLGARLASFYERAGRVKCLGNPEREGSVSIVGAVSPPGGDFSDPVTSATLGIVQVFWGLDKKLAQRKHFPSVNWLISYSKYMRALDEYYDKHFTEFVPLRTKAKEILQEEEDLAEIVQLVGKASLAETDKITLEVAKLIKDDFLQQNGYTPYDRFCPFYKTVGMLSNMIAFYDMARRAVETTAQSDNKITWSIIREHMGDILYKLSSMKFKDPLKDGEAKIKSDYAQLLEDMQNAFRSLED
UniProt Q8N122: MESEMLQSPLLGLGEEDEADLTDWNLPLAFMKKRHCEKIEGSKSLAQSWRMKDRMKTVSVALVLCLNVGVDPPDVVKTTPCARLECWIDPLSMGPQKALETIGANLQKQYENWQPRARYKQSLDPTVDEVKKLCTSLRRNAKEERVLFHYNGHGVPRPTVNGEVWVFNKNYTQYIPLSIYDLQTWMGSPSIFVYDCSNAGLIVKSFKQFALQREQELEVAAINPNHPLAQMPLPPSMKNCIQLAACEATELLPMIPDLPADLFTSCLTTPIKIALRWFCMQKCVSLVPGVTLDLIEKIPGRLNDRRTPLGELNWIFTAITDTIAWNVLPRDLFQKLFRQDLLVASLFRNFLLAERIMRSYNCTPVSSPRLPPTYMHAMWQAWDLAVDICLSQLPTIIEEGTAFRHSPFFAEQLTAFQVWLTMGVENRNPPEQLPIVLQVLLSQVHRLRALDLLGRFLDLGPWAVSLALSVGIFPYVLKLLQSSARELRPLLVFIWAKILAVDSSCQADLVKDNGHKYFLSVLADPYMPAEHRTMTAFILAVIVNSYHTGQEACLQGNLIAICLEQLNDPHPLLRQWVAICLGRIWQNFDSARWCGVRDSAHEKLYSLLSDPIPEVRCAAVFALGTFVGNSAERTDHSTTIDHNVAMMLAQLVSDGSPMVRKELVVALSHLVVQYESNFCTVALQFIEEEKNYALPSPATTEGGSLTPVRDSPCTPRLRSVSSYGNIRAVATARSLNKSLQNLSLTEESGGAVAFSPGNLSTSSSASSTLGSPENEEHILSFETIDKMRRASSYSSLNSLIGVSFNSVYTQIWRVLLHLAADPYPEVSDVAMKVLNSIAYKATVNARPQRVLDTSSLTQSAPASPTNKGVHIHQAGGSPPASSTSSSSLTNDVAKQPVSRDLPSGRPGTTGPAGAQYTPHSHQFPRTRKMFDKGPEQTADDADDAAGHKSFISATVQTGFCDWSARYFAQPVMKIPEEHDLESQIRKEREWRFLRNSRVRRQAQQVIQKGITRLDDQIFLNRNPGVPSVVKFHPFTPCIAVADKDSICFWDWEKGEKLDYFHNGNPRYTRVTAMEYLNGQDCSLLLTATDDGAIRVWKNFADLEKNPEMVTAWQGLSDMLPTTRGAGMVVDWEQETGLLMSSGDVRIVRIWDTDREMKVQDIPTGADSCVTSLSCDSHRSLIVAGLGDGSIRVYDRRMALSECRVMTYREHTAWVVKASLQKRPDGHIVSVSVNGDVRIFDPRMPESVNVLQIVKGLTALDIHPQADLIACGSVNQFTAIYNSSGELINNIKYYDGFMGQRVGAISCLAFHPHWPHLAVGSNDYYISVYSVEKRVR
UniProt Q6R327: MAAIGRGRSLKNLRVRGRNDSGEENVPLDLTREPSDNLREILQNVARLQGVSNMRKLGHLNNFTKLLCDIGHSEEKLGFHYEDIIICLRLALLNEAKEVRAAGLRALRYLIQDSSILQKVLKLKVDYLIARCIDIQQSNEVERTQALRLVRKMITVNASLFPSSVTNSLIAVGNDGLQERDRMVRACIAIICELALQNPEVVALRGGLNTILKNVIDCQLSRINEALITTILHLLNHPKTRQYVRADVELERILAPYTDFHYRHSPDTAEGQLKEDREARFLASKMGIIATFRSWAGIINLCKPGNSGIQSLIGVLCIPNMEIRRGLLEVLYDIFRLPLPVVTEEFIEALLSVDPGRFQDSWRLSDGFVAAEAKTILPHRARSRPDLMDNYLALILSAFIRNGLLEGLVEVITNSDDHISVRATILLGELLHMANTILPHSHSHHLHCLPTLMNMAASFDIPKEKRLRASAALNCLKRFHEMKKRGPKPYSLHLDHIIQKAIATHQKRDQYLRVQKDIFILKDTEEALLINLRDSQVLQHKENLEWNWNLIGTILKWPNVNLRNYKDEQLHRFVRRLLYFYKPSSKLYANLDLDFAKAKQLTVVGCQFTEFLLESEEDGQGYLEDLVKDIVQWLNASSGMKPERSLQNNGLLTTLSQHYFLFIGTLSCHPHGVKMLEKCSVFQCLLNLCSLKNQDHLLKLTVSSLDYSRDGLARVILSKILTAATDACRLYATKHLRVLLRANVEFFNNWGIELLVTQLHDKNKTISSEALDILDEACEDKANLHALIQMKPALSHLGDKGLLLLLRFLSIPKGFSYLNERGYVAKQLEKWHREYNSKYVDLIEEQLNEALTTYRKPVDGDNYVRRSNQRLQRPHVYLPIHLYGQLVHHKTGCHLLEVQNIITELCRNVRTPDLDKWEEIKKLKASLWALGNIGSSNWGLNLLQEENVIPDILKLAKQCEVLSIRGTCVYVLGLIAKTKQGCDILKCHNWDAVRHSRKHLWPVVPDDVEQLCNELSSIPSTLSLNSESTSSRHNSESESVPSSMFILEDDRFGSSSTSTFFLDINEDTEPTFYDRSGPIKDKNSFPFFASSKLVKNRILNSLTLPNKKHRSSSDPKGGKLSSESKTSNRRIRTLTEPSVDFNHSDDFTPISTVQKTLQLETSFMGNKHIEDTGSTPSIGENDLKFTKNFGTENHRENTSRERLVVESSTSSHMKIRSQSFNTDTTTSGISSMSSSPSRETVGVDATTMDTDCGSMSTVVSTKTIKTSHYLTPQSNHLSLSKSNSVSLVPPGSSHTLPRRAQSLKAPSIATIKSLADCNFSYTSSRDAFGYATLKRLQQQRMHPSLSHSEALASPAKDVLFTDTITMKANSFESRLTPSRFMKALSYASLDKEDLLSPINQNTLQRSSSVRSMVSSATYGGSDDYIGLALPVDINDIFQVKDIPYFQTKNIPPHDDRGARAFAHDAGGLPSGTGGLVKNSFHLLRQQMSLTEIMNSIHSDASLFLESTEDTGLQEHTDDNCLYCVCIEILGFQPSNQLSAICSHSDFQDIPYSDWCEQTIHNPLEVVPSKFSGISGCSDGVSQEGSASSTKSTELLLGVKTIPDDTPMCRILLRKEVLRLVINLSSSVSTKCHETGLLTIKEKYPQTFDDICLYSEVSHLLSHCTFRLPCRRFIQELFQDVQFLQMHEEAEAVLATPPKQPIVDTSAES

Where a chain is given by its changes, count along the chain named. Numbers in names are those of the source. These are yes or no findings as the source states them, for the method shown. In cells and extracts the contact can be indirect. Some results given as binding are weak or reduced against the parent protein; the word gives no strength.

What all share (test): co-IP; HEK293T cells 24-36 h after transfection, lysed in BLB lysis buffer or IP buffer (0.5% NP-40, 150 mM NaCl, 50 mM Tris-HCl, pH 7.5); anti-FLAG or anti-HA beads overnight at 4 °C; immunoblot
For orientation: In western blotting, separated proteins are transferred to a membrane and probed.

Test [1] deals with ATP6V1A (UniProt P38606).
Test [2] addresses PRAS40 (UniProt Q96B36).
Test [3] has as its target Raptor (UniProt Q8N122).
The target of test [4] is Rictor (UniProt Q6R327).

B1: STK11IP (protein, UniProt Q8N1F8 1-1088)
chain: MTTAQRDSLLWKLAGLLRESGDVVLSGCSTLSLLTPTLQQLNHVFELHLGPWGPGQTGFVALPSHPADSPVILQLQFLFDVLQKTLSLKLVHVAGPGPTGPIKIFPFKSLRHLELRGVPLHCLHGLRGIYSQLETLICSRSLQALEELLSACGGDFCSALPWLALLSANFSYNALTALDSSLRLLSALRFLNLSHNQVQDCQGFLMDLCELHHLDISYNRLHLVPRMGPSGAALGVLILRGNELRSLHGLEQLRNLRHLDLAYNLLEGHRELSPLWLLAELRKLYLEGNPLWFHPEHRAATAQYLSPRARDAATGFLLDGKVLSLTDFQTHTSLGLSPMGPPLPWPVGSTPETSGGPDLSDSLSSGGVVTQPLLHKVKSRVRVRRASISEPSDTDPEPRTLNPSPAGWFVQQHPELELMSSFRERFGRNWLQYRSHLEPSGNPLPATPTTSAPSAPPASSQGPDTAPRPSPPQEEARGPQESPQKMSEEVRAEPQEEEEEKEGKEEKEEGEMVEQGEEEAGEEEEEEQDQKEVEAELCRPLLVCPLEGPEGVRGRECFLRVTSAHLFEVELQAARTLERLELQSLEAAEIEPEAQAQRSPRPTGSDLLPGAPILSLRFSYICPDRQLRRYLVLEPDAHAAVQELLAVLTPVTNVAREQLGEARDLLLGRFQCLRCGHEFKPEEPRMGLDSEEGWRPLFQKTESPAVCPNCGSDHVVLLAVSRGTPNRERKQGEQSLAPSPSASPVCHPPGHGDHLDRAKNSPPQAPSTRDHGSWSLSPPPERCGLRSVDHRLRLFLDVEVFSDAQEEFQCCLKVPVALAGHTGEFMCLVVVSDRRLYLLKVTGEMREPPASWLQLTLAVPLQDLSGIELGLAGQSLRLEWAAGAGRCVLLPRDARHCRAFLEELLDVLQSLPPAWRNCVSATEEEVTPQHRLWPLLEKDSSLEARQFFYLRAFLVEGPSTCLVSLLLTPSTLFLLDEDAAGSPAEPSPPAASGEASEKVPPSGPGPAVRVREQQPLSSLSSVLLYRSAPEDLRLLFYDEVSRLESFWALRVVCQEQLTALLAWIREPWEELFSIGLRTVIQEALALDR
With B1, the binding result was “binds” in test [1], “binds” in test [2], “binds” in test [3] and “no binding” in test [4].

B2: S404A-STK11IP (protein, UniProt Q8N1F8 1-1088)
chain: B1 chain with S404A
For the molecule B2, the binding result in test [1] was “binds”.

B3: STK11IP F567A (protein, UniProt Q8N1F8 1-1088)
chain: B1 chain with F567A
As for B3, in test [3], the binding entry was “no binding”.

B4: S404D-STK11IP (protein, UniProt Q8N1F8 1-1088)
chain: B1 chain with S404D
On to B4, for which the binding entry in test [1] is “binds”.

B5: P5 domain of STK11IP (amino acid 360-770) (domain or fragment, UniProt Q8N1F8 360-770)
chain: SDSLSSGGVVTQPLLHKVKSRVRVRRASISEPSDTDPEPRTLNPSPAGWFVQQHPELELMSSFRERFGRNWLQYRSHLEPSGNPLPATPTTSAPSAPPASSQGPDTAPRPSPPQEEARGPQESPQKMSEEVRAEPQEEEEEKEGKEEKEEGEMVEQGEEEAGEEEEEEQDQKEVEAELCRPLLVCPLEGPEGVRGRECFLRVTSAHLFEVELQAARTLERLELQSLEAAEIEPEAQAQRSPRPTGSDLLPGAPILSLRFSYICPDRQLRRYLVLEPDAHAAVQELLAVLTPVTNVAREQLGEARDLLLGRFQCLRCGHEFKPEEPRMGLDSEEGWRPLFQKTESPAVCPNCGSDHVVLLAVSRGTPNRERKQGEQSLAPSPSASPVCHPPGHGDHLDRAKNSPPQAPSTRD
For B5, the binding result in test [1] is recorded as “binds”.

B6: S404D P5 mutant of STK11IP (domain or fragment, UniProt Q8N1F8 360-770)
chain: B5 chain with S45D
B6: in test [1], the binding entry is reported as “binds”.

B7: P5 domain of STK11IP bearing the S404A mutation (domain or fragment, UniProt Q8N1F8 360-770)
chain: B5 chain with S45A
As for B7, the binding entry in test [1] is recorded as “binds”.
